Each structure is given as a SMILES string. Among all 52,000 compounds or so, about 1,700 (3.3%) were called active. Cut-off read from the data, not from the text of the source: active = survival mostly below about 52% (no sharp cut-off); inactive = mostly above about 56%. Some of the results follow.

This experiment concerns Wild type. In words: S. aureus survival, RN4220 and DeltatarO strains – OD600, teichoic acid synthesis inhibitors, primary screen (AID 463173). To be noted: S. aureus RN4220 wild type/DeltatarO growth, OD600, 18 h, hits give low values, screened at 18.75 µg/mL (by protocol).
Turning to `CCOC(=O)c1ccccc1NC(=O)CN(c1ccccc1)S(=O)(=O)c1ccc(OCC)cc1`, the survival was inactive: 85%.

Consider `Cc1cccc(NC(=O)Nc2cccs2)c1C`, for which the survival is inactive: 76%.

For `CCn1nc(C)c2c(-c3ccccc3)cc(=O)n(C(C)C(=O)Nc3ccc(OC)c(OC)c3)c21` (stereo unspecified), the survival is inactive: 59%.

Turning to `COc1ccc(C2C=C(c3ccccc3)Nc3nc(NC(C)=O)nn32)cc1` (stereo unspecified), the survival was inactive: 85%.

For `Cc1ccc(C)c(NC(=O)Cn2ncc3c(C)n(Cc4ccc(F)cc4)c(C)c3c2=O)c1`, the survival is inactive: 87%.

On to `COc1ccc(-c2cn3c(c2C)-c2ccc(C)n2CC3)cc1`, for which the survival was inactive: 115%.

For the compound `CCCCCCc1c(C)c2c(cc(C)c3c(C)coc32)oc1=O`, the survival was inactive: 95%.

In the case of `CC1=C(c2ccc(C)c(C)c2)S(=O)(=O)N(Cc2ccc(C(=O)NCc3ccccc3F)cc2)C1=O`, the survival was inactive: 92%.

Regarding `COc1ccc(-c2cc(C(F)(F)F)n3nc(C)c(-c4ccccc4)c3n2)cc1OC`, the survival is inactive: 78%.

As for `O=C(CCc1cn(Cc2ccc(F)cc2)c2ccccc12)NC1CCCCC1`, the survival was inactive: 90%.

For `CCOc1ccc(NC(=O)NCCN2CCN(c3cc(Cl)ccc3C)CC2)cc1`, the survival was inactive: 53%.

For `O=C(NCCc1ccccc1)c1c[nH]c2ccc(S(=O)(=O)Nc3ccc(F)cc3F)cc2c1=O`, the survival is inactive: 75%.

For `CCCC(=O)Nc1cc2nn(-c3ccc(OC)cc3)nc2cc1C`, the survival is inactive: 73%.

As for `Nc1nnc(CC(=O)N2CCCC2)s1`, the survival is inactive: 116%.

Turning to `Cc1ccc(C)c(OCC(=O)Nc2sc3c(c2C#N)CCCC3)c1C`, the survival was inactive: 60%.

Turning to `CCC1CCCCN1CCCNC(=O)c1ccc2c(c1)c(C)c(C)n2CC` (stereo unspecified), the survival was inactive: 68%.

For the compound `CCOC(=O)c1c(Nc2ccc(C)c(C)c2)nnc(-c2ccccc2)c1-c1ccccc1`, the survival is active: 0%.

On to `COc1ccc(CNC(=O)CN2N=C(c3ccc(Cl)cc3)CCC2=O)cc1`, for which the survival was inactive: 123%.

For the compound `Cc1cc(C)c(NC(=O)Cn2c(=O)n(CCC(C)C)c(=O)c3cccnc32)c(C)c1`, the survival is inactive: 83%.

For `COc1ccc(-c2nn(C)c3sc(C(=O)NCCN(C)C)cc23)cc1OC`, the survival is inactive: 82%.

On to `COc1cccc(NC(=O)C2CCCN(c3ncnc4onc(-c5ccc(F)cc5)c34)C2)c1` (stereo unspecified), for which the survival was inactive: 97%.

Turning to `O=C(O)Cn1ccc(=O)[nH]c1=O`, the survival is inactive: 109%.

With `CCc1ccc(C(=O)c2cn(CC(=O)NCCc3ccccc3)c3nc(C)ccc3c2=O)cc1`, the survival was inactive: 74%.

Consider `COc1ccc(C(=O)CC2(O)C(=O)N(Cc3ccccc3)c3ccc(Br)cc32)cc1` (stereo unspecified), for which the survival is inactive: 57%.

With `Cc1ccc(N2CC(NC(=O)CCCc3ccccc3)CC2=O)cc1` (stereo unspecified), the survival is inactive: 53%.

In the case of `COc1ccc(Cn2c(SCc3ccc(C(=O)NCc4ccc(C)cc4)cc3)nc3cccnc32)cc1`, the survival was inactive: 85%.

For the compound `O=C(NCCc1ccccc1)c1ccc2c(c1)N(Cc1ccc(Cl)cc1)C(=O)c1ccccc1S2(=O)=O`, the survival was inactive: 102%.

For `O=C(NCCSc1c[nH]c2ccccc12)c1ccc(Cl)cc1`, the survival is inactive: 51%.

With `Cc1ccc(C2=Nc3ccccc3N=C(c3ccc(F)cc3)C2)c(O)c1`, the survival is inactive: 83%.

On to `CCN(c1ccccc1C)S(=O)(=O)c1nnc(NC(=O)c2ccc(OC)c(OC)c2)s1`, for which the survival is inactive: 42%.

With `CCc1nc(SC)ncc1C(=O)NCc1cccc(Br)c1`, the survival was inactive: 113%.

Consider `COC(=O)Cc1[nH]nc2c1C(c1c[nH]c3ccccc13)C(C#N)=C(N)O2` (stereo unspecified), for which the survival is inactive: 101%.

Consider `CCc1ccc2[nH]c(=O)c(CN(Cc3ccco3)Cc3nnnn3Cc3ccccc3)cc2c1`, for which the survival is inactive: 110%.

As for `COc1ccc(CNC(=O)c2ccc(CN3C(=O)C(C)=C(c4ccc(C)cc4)S3(=O)=O)cc2)cc1`, the survival was inactive: 82%.

Consider `Cc1cc(O)c2c(C)c(CC(=O)NCc3ccccc3Cl)c(=O)oc2c1`, for which the survival was inactive: 66%.

Turning to `O=C(Cn1nc(Cc2cccnc2)c2ccccc2c1=O)N1CCN(c2ccccc2F)CC1`, the survival is inactive: 74%.

As for `Cc1ccc(Cl)cc1N1CCN(c2nc3ccc(C(=O)c4ccccc4)cc3n3cnnc23)CC1`, the survival is active: -6%.

Regarding `CC1=C(C(=O)NCc2cccc(F)c2)C2(CCCCCC2)OC1=O`, the survival was inactive: 65%.

On to `Cc1ccc(-n2ncc(C(=O)Nc3ccc4c(c3)OCCO4)c2C2CCN(C(=O)OC(C)(C)C)CC2)cc1C`, for which the survival is inactive: 82%.

Consider `O=C(NCCCN=C1NS(=O)(=O)c2ccccc21)c1ccncc1`, for which the survival is inactive: 111%.

In the case of `COc1ccc(CNC(=O)c2cc(-c3ccc(Br)s3)nc3ccccc23)c(OC)c1`, the survival is inactive: 92%.

In the case of `O=C(NC1CCCC1)c1cc2sccc2n1Cc1ccccc1`, the survival was inactive: 122%.

`Oc1ccc(N=Cc2ccccc2O)cc1`: the survival was inactive: 84%.

With `COCCN1CCc2nc(SCC(=O)Nc3ccc(C)c(Cl)c3)[nH]c(=O)c2C1`, the survival is inactive: 85%.

Take `COc1ccccc1N1CCN(C(=O)Cn2ncc3c2-c2cc(C)ccc2OC3)CC1`: the survival was inactive: 72%.

Turning to `COc1ccc(Nc2nc3ccc(C)cc3nc2-n2nc(C)cc2C)cc1Cl`, the survival is inactive: 77%.

In the case of `CCOC(=O)c1cc2occc2n1CCc1ccccc1`, the survival is inactive: 123%.

For the compound `CCOc1ccccc1CNC(=O)Cn1c(=O)c2cccn2c2ccc(F)cc21`, the survival was inactive: 98%.

As to `COc1ccccc1NC(=O)CC1Sc2ccc(C(F)(F)F)cc2NC1=O` (stereo unspecified), the survival is inactive: 95%.

As to `CCOC(=O)c1noc2ncn(CC(=O)Nc3ccc(F)cc3Cl)c(=O)c12`, the survival was active: -6%.

On to `COc1ccc(-c2onc(C)c2C)cc1S(=O)(=O)NCc1cccs1`, for which the survival is inactive: 76%.

As for `CC1=C(C(=O)OCc2ccc(C)cc2)C(c2ccccc2C(F)(F)F)CC(=O)N1` (stereo unspecified), the survival is inactive: 134%.

In the case of `CCOc1ccc(C(=O)Nc2ccc3c(c2)CCCN3S(=O)(=O)c2ccc(C)cc2)cc1`, the survival was inactive: 70%.

As to `CC1CCCCN1Cc1c(O)ccc2c(=O)c(-c3ccc(Cl)cc3)c(C(F)(F)F)oc12` (stereo unspecified), the survival is inactive: 128%.

As for `Cc1ccc(OCCSc2nc3ccccc3n2CC(=O)N2CCOCC2)cc1`, the survival was inactive: 113%.

`NC(=O)CCn1c2ccccc2c2ccccc21`: the survival is inactive: 108%.

`COC(=O)c1c(NC(=O)c2ccc(Cl)c(Cl)c2)sc2c1CCCC2`: the survival is inactive: 69%.

For `CCOC(=O)c1sc2ncn(CC(=O)Nc3ccc(F)cc3F)c(=O)c2c1C`, the survival is inactive: 129%.

`CCOc1ccc(NC(=O)CSc2nnc3scc(-c4ccccc4)n23)cc1`: the survival was inactive: 48%.

Consider `O=C(Nc1ccc(S(=O)(=O)N2CCCCC2)cc1)C(F)(F)F`, for which the survival is inactive: 107%.

As to `CCOc1ccccc1NC(=O)Cn1c(=O)n(Cc2ccc(OC)cc2)c(=O)c2oc3ccccc3c21`, the survival was inactive: 85%.

Consider `COc1ccc(OC)c(CNC(=O)CCCn2c(=O)c3cccn3c3cccnc32)c1`, for which the survival was inactive: 79%.

With `Cc1oc(-c2ccccc2F)nc1Cn1c(SCc2cccc(C(F)(F)F)c2)nc2ccncc21`, the survival was inactive: 81%.

Turning to `O=C1c2ccccc2NC2(CCCCC2)N1Cc1ccco1`, the survival was inactive: 127%.

Consider `CCc1ccccc1NC(=O)c1cc(-c2ccc(Cl)s2)nc2ccccc12`, for which the survival is inactive: 94%.

On to `O=C(Nc1ccccc1F)c1cnc(N2CCCCC2)c2ccccc12`, for which the survival was inactive: 125%.

For `Cc1cc2c(cc1S(=O)(=O)Nc1ccc(C(C)C)cc1)OCCN2C`, the survival was inactive: 86%.

With `COc1ccccc1-c1nnc(C2CCN(C(=O)c3ccccc3C)CC2)o1`, the survival is inactive: 77%.

Turning to `Cc1ccc(C(c2nnnn2C(C)(C)C)N2CCC(C)CC2)cc1` (stereo unspecified), the survival was inactive: 103%.

Regarding `COc1ccc(N(CC(=O)Nc2cc(OC)cc(OC)c2)S(=O)(=O)c2c(C)noc2C)cc1`, the survival was inactive: 37%.

For the compound `Cc1cccc(-n2cnc3cc(C(=O)NCc4ccccc4Cl)ccc32)c1`, the survival is inactive: 68%.

Consider `Cc1ccc(C(C)C)c(OCC(=O)Nc2cc(-c3nc4ccccc4[nH]3)ccc2C)c1`, for which the survival is inactive: 44%.

Regarding `COc1ccccc1NC(=O)c1cc2c(=O)n(Cc3cccs3)ccc2nc1C`, the survival is inactive: 87%.

`O=C(CSc1nc2ccccc2o1)Nc1ccc(S(=O)(=O)NC2CCCC2)cc1`: the survival is inactive: 129%.

As for `Cc1ccc(O)c(NC(=O)CCS(=O)(=O)c2nc(-c3cccs3)cc(C(F)(F)F)n2)c1`, the survival is inactive: 94%.

In the case of `Cc1cccc(-n2c(C)cc(C(=O)C(=O)Nc3nncs3)c2C)c1`, the survival was inactive: 87%.

For `COc1ccc(CCNc2ncnc3c2c(-c2ccccc2)cn3-c2ccc(Cl)cc2)cc1OC`, the survival is inactive: 113%.

Turning to `COc1cc(CN(C(=O)c2ccc(OC(C)C)cc2)c2ccccn2)cc(OC)c1OC`, the survival is inactive: 108%.

For the compound `COc1cccc(-c2nc(CS(=O)(=O)CC(=O)Nc3cccc(C(C)=O)c3)c(C)o2)c1`, the survival was inactive: 71%.

Take `COC(=O)c1ccc(NC(=O)C2CCN(c3ncnc4c3nc3n4CCCCC3)CC2)cc1`: the survival is inactive: 71%.

On to `CCOC(=O)CSc1nc2ccc(NC(=O)c3ccc(Cl)cc3)cc2s1`, for which the survival was inactive: 90%.

Take `Cc1cc(C)cc(Nc2cc(C(=O)NC3CCCCC3)c3ccccc3n2)c1`: the survival was inactive: 124%.

With `Cc1cc(C)cc(NC(=O)CSc2c(C(C)C)cnc3c2c(=O)n(C)c(=O)n3C)c1`, the survival is inactive: 74%.

`CCOC(=O)c1cc(C)n(CC2CCC(C(=O)Nc3ccc(OC)cc3)CC2)c1C` (stereo unspecified): the survival is inactive: 79%.

Take `Fc1ccc(-c2cc3ncc4c(n3n2)-c2cc(Cl)ccc2OC4)cc1`: the survival is inactive: 94%.

With `CCOC(=O)c1ccccc1NC(=O)CSc1nnc(CC)n2c1cc1occc12`, the survival is inactive: 67%.

As for `COc1ccc(C)cc1NC(=O)c1cc(S(=O)(=O)N2CCC(C)CC2)ccc1F`, the survival is inactive: 88%.

On to `Cc1ccc(Nc2ncnc3ccccc23)cc1`, for which the survival was inactive: 118%.

Consider `CCCCc1ccc(C(=O)Nc2ccc3nc(N4CCN(CC)CC4)cc(C)c3c2)cc1`, for which the survival is inactive: 81%.

Regarding `CCCc1cc(C(=O)Nc2c(C)nn(Cc3c(Cl)cccc3Cl)c2C)no1`, the survival is inactive: 75%.

Regarding `Cc1cc(C)c(S(=O)(=O)Nc2ccc(-c3ccc(N4CCCCCC4)nn3)cc2)c(C)c1`, the survival is inactive: 72%.
